From PubChem BioAssay AID493169 (National Center for Advancing Translational Sciences (NCATS), 2011)
Inconclusive means that the source gave no clear call. Such entries were picked first, then a sample of the others. Where the call is inconclusive, the potency comes from a doubtful curve fit. The source made the active and inactive calls. The call rests on the fitted dose curve; in most records, active means well fitted inhibition curve with a large enough effect; inconclusive means small, poorly fitted or top-dose-only effect; inactive means flat fitted curve, though single readings scatter.

assay: CHOP2 Reporter Counterscreen Assay for Inhibitors of Ubiquitin-specific Protease USP2a; details: purified enterokinase, fluorogenic substrate, 485/531 nm; series mostly up to 38.3 µM;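 further: activated enterokinase alone at 50 pM in a cell-free format rather than USP2a or CHOP2; nearly all actives have a fitted effect of over 55% in size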
Text: NIH Molecular Libraries Probe Centers Network [MLPCN] NIH Chemical Genomics Center [NCGC] MLPCN Grant: XO1-MH079852-01 PI Name: Nicholson, Ben. Progenra Inc, Malvern, PA NCGC Assay Overview: Homeostasis of cellular proteins is maintained through a combination of synthesis and degradation. The pathway that accounts for the majority of protein degradation is the ubiquitin-proteasomal pathway. Ubiquitin (Ub) is highly conserved in all cells and the generation of a multi-Ub chain typically targets proteins for degradation by the proteasome. However, ubiquitination is highly reversible and dynamic. Deubiquitination, the reverse process, is catalyzed through the action of enzymes referred to as isopeptidases or deubiquitinating enzymes (DUBs). This group of enzymes is collectively responsible for maintaining adequate pools of free ubiquitin and regulating the ubiquitination status of cellular proteins. The class of DUBs referred to as the ubiquitin-specific proteases (USP) family functions endoproteolytically to cleave Ub chains from a wide range of protein substrates. USP2a deubiquitinates fatty acid synthase (FASN) which has recently been identified as an emerging oncology target. To identify inhibitors of USP2a a cell-free assay was employed. This assay is a counterscreen against the reporter enzyme used to measure USP2a activity in the primary qHTS assay. The reporter enzyme is a protease (enterokinase, EK; EC 3.4.21.9), which is activated when a Ub sequence is cleaved by USP2a. The counterscreen assay is performed in the same buffer and conditions as the primary USP2a coupled assay but uses fully activated EK alone. The assay gives a fluorescent read-out at excitation/emission wavelengths of 485/531. The assay was provided by Progenra, Inc. and has been licensed for sale by LifeSensors, Inc.
NCGC Assay Protocol: The assay buffer, prepared fresh at the day of the assay, contains 20mM Tris-HCl pH 8.0, 2mM CaCl2, 2mM beta-Mercaptoethanol, 0.05% CHAPS. 3uL of 100 pM EK (50 pM final) was dispensed into a medium-binding black solid Kalypsys 1,536 well plate using the Kalypsys dispenser. The assay plate was then pinned with 23nL compounds in DMSO with the Kalypsys pintool in columns 5-48 (0.3% final DMSO concentration). The negative control was buffer/DMSO only in column 3. The assay plate is incubated at RT for 30min. Subsequently, 3uL of reporter substrate (25nM final) were dispensed into the plate using the Kalypsys dispenser. Plates were read after 10 min at RT on a ViewLux (Perkin Elmer) plate reader using the following wavelengths: Ex 485nm /Em 531nm. Data were normalized to the AC100 inhibition (buffer alone). Concentration-response curves were fitted to the normalized data and the concentration-response curves were then classified based on curve quality (r2), response magnitude and degree of measured activity. The time zero reading was used to flag fluorescence artifacts.
Potency means the concentration at half of the fitted maximal effect; tags describe the fitted curve by direction and shape.

Question: For `C=C1c2cccc(O)c2C(=O)C2C(=O)[C@]3(O)C(=O)C(C(N)=O)C(=O)[C@@H](N(C)C)[C@@H]3[C@@H](O)[C@H]12` (stereo not given in full), which Potency is on record?
Answer: The Potency was inconclusive: 28.2 µM [inhibitor, single point].

Question: Which Potency does the source give for `Cc1ccc(S(=O)(=O)N2[C@@H](c3ccc(C(C)(C)C)cc3)C(C(=O)O)=CC[C@H]2c2ccc(C(C)C)cc2)cc1` here?
Answer: Its Potency is inconclusive: 22.4 µM [inhibitor, single point].

Question: For `COC(=O)c1ccc(NC(=O)CSC2=Nc3ccccc3C3CC=NN23)cc1` (stereo not given), which Potency is on record?
Answer: The Potency was “inactive”.

Question: For `NS(=O)(=O)c1ccc(CCNC(=O)c2cc3ccccc3s2)cc1`, which Potency is on record?
Answer: The Potency was inconclusive: 28.2 µM [inhibitor, single point].

Question: With `COc1ccccc1C(=O)n1nc(-c2cccnc2)nc1NCc1ccccc1` as the compound, how does the Potency read?
Answer: The Potency was active: 1 µM.

Question: For `Cc1ccc(SCc2cc(=O)c3c(=O)n(-c4ccccc4)[nH]c3[nH]2)cc1`, which Potency is on record?
Answer: The Potency was inconclusive: 28.2 µM [inhibitor, single point].

Question: With `CCOc1ccc(CCn2c(-c3ccco3)nc3ccccc3c2=O)cc1OCC` as the compound, how does the Potency read?
Answer: Its Potency is “inactive”.

Question: Which Potency does the source give for `Cc1ccccc1[C@@H]1C(C#N)=C(N)S[C@H]1C(=O)c1ccccc1` here?
Answer: Its Potency is “inactive”.

Question: With `Cc1cccc(C)c1-n1cccc1/C=C1\SC(=S)N(c2cccc(C(=O)O)c2)C1=O` as the compound, how does the Potency read?
Answer: The Potency was inconclusive: 20 µM [inhibitor, single point].

Question: With `Cc1ccc(C(=O)Oc2coc(CSc3nnc(NC(=O)c4cccs4)s3)cc2=O)cc1` as the compound, how does the Potency read?
Answer: Its Potency is active: 3.16 µM.

Question: Which Potency does the source give for `Cc1ccc(N(CC(=O)N/N=C/c2ccco2)S(=O)(=O)c2ccccc2)cc1` here?
Answer: The Potency was inconclusive: 28.2 µM [inhibitor, single point].

Question: For `Cc1ccc(S(=O)(=O)Cc2ccc(C(=O)N3CCN(c4ccccn4)CC3)o2)cc1`, which Potency is on record?
Answer: Its Potency is inconclusive: 17.8 µM [inhibitor, partial curve, poor fit].

Question: Which Potency does the source give for `CCOC(=O)/C(C#N)=C(C)/C=C1\Sc2ccccc2N1CC` here?
Answer: Its Potency is inconclusive: 10 µM [activator, partial curve].

Question: With `COc1cc(/C=C/c2cc[n+](C)cc2)ccc1OCC(=O)Nc1ccc(Cl)c(Cl)c1` as the compound, how does the Potency read?
Answer: The Potency was active: 11.2 µM.

Question: Which Potency does the source give for `CCN(CC)S(=O)(=O)c1ccc(-c2nnc(SCC(=O)Nc3ccc4c(c3)OCO4)o2)cc1` here?
Answer: The Potency was inconclusive: 11.2 µM [inhibitor, partial curve, poor fit].

Question: With `O=[N+]([O-])c1cc(-c2nnc(Nc3ccccc3)c3ccccc23)ccc1N1CCOCC1` as the compound, how does the Potency read?
Answer: Its Potency is “inactive”.

Question: With `Cc1ccc(C(=O)NNc2c3ccccc3nc3ccccc23)cc1` as the compound, how does the Potency read?
Answer: Its Potency is inconclusive: 14.1 µM [inhibitor, single point].

Question: With `O=C(OCC(=O)N1N=C(c2ccc(Cl)cc2)CC1c1ccco1)c1cccnc1` (stereo not given) as the compound, how does the Potency read?
Answer: Its Potency is inconclusive: 10 µM [inhibitor, partial curve, poor fit].

Question: Which Potency does the source give for `Cc1ccc(/C=N/NC(=O)c2cc(-c3ccc(C)o3)[nH]n2)cc1` here?
Answer: The Potency was inconclusive: 28.2 µM [inhibitor, single point].

Question: Which Potency does the source give for `CNC(=O)NC(=O)CSc1ccc(NC(C)=O)cc1` here?
Answer: Its Potency is “inactive”.

Question: With `CC(C)c1ccc(Nc2nnc(SCC(=O)c3nnc(-c4ccccc4)o3)s2)cc1` as the compound, how does the Potency read?
Answer: Its Potency is active: 5.01 µM.

Question: With `CCOC(=O)c1c(C)n(-c2ccc(C)cc2)c2ccc(OCC(O)CN3CCN(C)CC3)cc12` (stereo not given) as the compound, how does the Potency read?
Answer: Its Potency is inconclusive: 12.6 µM [inhibitor, single point].

Question: Which Potency does the source give for `Cc1ccc(Nc2nc(N)nc(CN3CCN(C(=O)c4ccco4)CC3)n2)cc1Cl` here?
Answer: Its Potency is “inactive”.

Question: With `CC(C)C(=O)Nc1ccc(C(=O)N2CCCCCC2)cc1` as the compound, how does the Potency read?
Answer: The Potency was “inactive”.

Question: Which Potency does the source give for `COc1ccccc1NC(=O)CSc1nc(O)cc(=O)n1-c1ccccc1OC` here?
Answer: Its Potency is inconclusive: 10 µM [inhibitor, partial curve, poor fit].

Question: Which Potency does the source give for `O=C(/C(=N/N=C/c1ccc(O)c(O)c1O)c1ccccc1)c1ccccc1` here?
Answer: Its Potency is inconclusive: 3.55 µM [inhibitor, full curve].

Question: With `O=C(CSc1nc2ccccc2s1)NCCCN1CCOCC1` as the compound, how does the Potency read?
Answer: Its Potency is “inactive”.

Question: With `Cc1cc(OCC(=O)Nc2ccc(N3CCCC3)cc2)cc(C)c1Cl` as the compound, how does the Potency read?
Answer: Its Potency is inconclusive: 10 µM [inhibitor, partial curve, poor fit].

Question: For `Cc1cc(-c2nnc3n2N=C(c2ccc(-c4ccccc4)cc2)CS3)n[nH]1`, which Potency is on record?
Answer: Its Potency is inconclusive: 25.1 µM [inhibitor, single point].

Question: Which Potency does the source give for `CN(c1ccccc1)S(=O)(=O)c1ccc(Cl)c(C(=O)NCCc2c[nH]c3ccccc23)c1` here?
Answer: The Potency was “inactive”.

Question: For `Cc1ccc(S(=O)(=O)N2[C@@H](c3ccc(C(C)(C)C)cc3)C(C(=O)O)=CC[C@H]2c2cccc(Cl)c2)cc1`, which Potency is on record?
Answer: Its Potency is inconclusive: 22.4 µM [inhibitor, single point].

Question: With `C#CCOCCOCCOCCNc1nc(N2CCN(C(=O)CCCCCCCCCCNC(=O)[C@@H](CCC(=O)O)n3cc(CCCCCN)nn3)CC2)nc(N2CCN(C(=O)CCCCCCCCCCNC(=O)[C@H](CCCCN)n3cc(C[C@@H](C)CC)nn3)CC2)n1` as the compound, how does the Potency read?
Answer: Its Potency is active: 5.62 µM.

Question: For `CC1=NN(C(=O)c2csc(C)c2C)C(O)(C(F)(F)F)C1` (stereo not given), which Potency is on record?
Answer: Its Potency is “inactive”.

Question: Which Potency does the source give for `COc1ccc(-c2csc(Nc3ccc(S(=O)(=O)Nc4cc(OC)nc(OC)n4)cc3)n2)cc1` here?
Answer: The Potency was “inactive”.

Question: Which Potency does the source give for `COc1ccc(/C=N/NC(=O)c2nn(-c3ccccc3)c(=O)c3c(N)scc23)cc1` here?
Answer: The Potency was inconclusive: 10 µM [inhibitor, partial curve, poor fit].

Question: Which Potency does the source give for `O=S(=O)(Nc1ccc(O)c(Sc2nc3ccccc3s2)c1)c1cccc2ccccc12` here?
Answer: The Potency was inconclusive: 28.2 µM [inhibitor, single point].

Question: Which Potency does the source give for `O=C(CCCN1C(=O)c2ccccc2C1=O)NC1=NCCS1` here?
Answer: The Potency was “inactive”.

Question: Which Potency does the source give for `COc1ccc(C(=O)COC(=O)c2ccccc2O)c(OC)c1` here?
Answer: The Potency was inconclusive: 11.2 µM [inhibitor, partial curve, poor fit].

Question: Which Potency does the source give for `COc1ccc(/C=C2\SC(=O)N(CCC(=O)Nc3ccc(S(=O)(=O)Nc4nccs4)cc3)C2=O)cc1` here?
Answer: The Potency was inconclusive: 20 µM [inhibitor, single point].

Question: Which Potency does the source give for `Cc1ccc(-c2cc(-c3ccc(C)cc3)[n+](-c3ccc(C(=O)[O-])cc3)c(-c3ccc(C)cc3)c2)cc1` here?
Answer: Its Potency is inconclusive: 28.2 µM [inhibitor, single point].
